Experimental data: PubChem BioAssay AID485294 (National Center for Advancing Translational Sciences (NCATS), 2010)
About 150 (0.041%) of roughly 370,000 compounds were called active. The inconclusive results got no clear call from the source; some entries with a clear call stand among them for comparison. Calls follow the shape of the dose curve; as a rule, active = well fitted inhibition curve with a large enough effect; inconclusive = small, poorly fitted or top-dose-only effect; inactive = flat fitted curve, though single readings scatter. No potency is given beside an inconclusive call; the fits are too rough.

Molecular target: Beta-lactamase (Escherichia coli (strain K12)) (UniProt P00811)
Chain of UniProt P00811 (P00811 whole entry, looked up): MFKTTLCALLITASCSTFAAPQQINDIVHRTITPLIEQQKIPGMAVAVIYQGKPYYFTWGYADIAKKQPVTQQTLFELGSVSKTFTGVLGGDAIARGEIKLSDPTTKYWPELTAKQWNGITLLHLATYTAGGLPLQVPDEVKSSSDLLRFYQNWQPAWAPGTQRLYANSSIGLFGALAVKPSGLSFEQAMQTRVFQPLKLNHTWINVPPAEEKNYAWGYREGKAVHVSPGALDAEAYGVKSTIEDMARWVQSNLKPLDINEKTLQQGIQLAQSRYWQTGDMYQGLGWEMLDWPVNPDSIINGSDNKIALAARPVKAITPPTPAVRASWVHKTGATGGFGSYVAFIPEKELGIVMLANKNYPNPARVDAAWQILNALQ
Assay: qHTS Inhibitors of AmpC Beta-Lactamase (assay with detergent); also: nearly all actives have a fitted effect of over 25% in size;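 as to activity change, negative = inhibition: 0% = no-compound wells and -100% = no-enzyme wells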
Settings: AmpC hydrolysis of nitrocefin, absorbance 480 nm, 0.01% Triton; activity change, negative = inhibition: at 114 µM (top of the series)
Outline: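 AmpC (5.3 nM in the dispensed reagent) in 20 mM phosphate pH 7.0 with 0.01% (detergent screen) or 0.0001% Triton X-100 was preincubated with compounds for 15 min at room temperature. Nitrocefin was then added from an 800 uM solution, and hydrolysis was followed at 480 nm.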
Potency is read from the fitted curve at half-maximal effect; tags tell the direction and shape of the fitted curve.

Q: How did the Potency turn out when `C=CCn1c(SCC(=O)NC2CC2)nnc1-c1cccc(OC)c1` was run?
A: inconclusive [inhibitor, full curve, poor fit]

Q: For `CC(C(=O)O)N1C(=O)/C(=C/C=C/c2ccco2)SC1=S` (stereo unspecified), which Potency is on record?
A: inconclusive [inhibitor, partial curve, poor fit]

Q: `CC(C)(C)NC(=O)C1CCC(CNc2c(N3CCCCC3)c(=O)c2=O)CC1` (stereo unspecified) was tested. Which “activity change, negative = inhibition” value did it give?
A: inactive: -1.66%

Q: For `CCOc1ccccc1NC(=O)c1cccc(N2C(=O)CCC2=O)c1`, which Potency is on record?
A: inconclusive [inhibitor, full curve, poor fit]

Q: With `Cc1ccc(S(=O)(=O)NCCC(=O)N2CCN(Cc3ccccc3)CC2)cc1` as the compound, how does the Potency read?
A: inconclusive [inhibitor, full curve, poor fit]

Q: Which Potency does the source give for `Cc1ccccc1Cn1nc(C)c(NC(=O)C(F)(F)F)c1C` here?
A: inconclusive [inhibitor, partial curve]

Q: For `Cc1ccc(NC(=O)c2ccccc2)cc1-n1cnnn1`, which Potency is on record?
A: inconclusive [inhibitor, full curve, poor fit]

Q: `CC(C)CNC(=O)C1C2C=CC(C2)C1C(=O)O` (stereo unspecified) was tested. Which “activity change, negative = inhibition” value did it give?
A: inactive: -0.117%

Q: How did the Potency turn out when `CC(C)(C)C(=O)Nc1ccccc1C(=O)NCCCn1ccnc1` was run?
A: inconclusive [inhibitor, full curve, poor fit]

Q: For `CC(C)(C)NC(=O)CN1CCC(O)(c2ccc3c(c2)OCO3)CC1`, which Potency is on record?
A: inconclusive [inhibitor, partial curve, poor fit]

Q: How did the Potency turn out when `Cc1cc2cc(CN(Cc3ccc4c(c3)OCO4)C(=O)c3cnccn3)c3nnnn3c2cc1C` was run?
A: inconclusive [inhibitor, full curve, poor fit]

Q: Which “activity change, negative = inhibition” value does the source give for `COc1cc2c(=O)n(Cc3ccccc3Cl)c(=O)n(CC(=O)Nc3ccccc3)c2cc1OC` here?
A: inactive: 11.4%

Q: With `CC(C)N1CCC(=NNc2ccc(S(=O)(=O)N3CCOCC3)cc2[N+](=O)[O-])CC1` as the compound, how does the Potency read?
A: inconclusive [inhibitor, full curve, poor fit]

Q: With `O=c1[nH]c(Cc2ccccc2)nc2c1oc1ccccc12` as the compound, how does the Potency read?
A: inconclusive [inhibitor, full curve]

Q: Which Potency does the source give for `CCNC(=O)CC1C(=O)N(c2ccc(F)cc2)C(=O)N1Cc1ccc(OC)cc1` (stereo unspecified) here?
A: inconclusive [inhibitor, full curve, poor fit]

Q: With `COC(=O)Nc1ccc2c(c1)ncn2C1CCCCC1` as the compound, how does the “activity change, negative = inhibition” value read?
A: inactive: 0.878%

Q: How did the “activity change, negative = inhibition” value turn out when `COc1ccc(C)cc1NC(=O)C1CCN(S(=O)(=O)c2c(C)noc2/C=C/c2ccco2)CC1` was run?
A: inactive: 2.45%

Q: For `CC1=CC(C)(C)NC(=S)N1c1cccc2ccccc12`, which Potency is on record?
A: inconclusive [inhibitor, partial curve]

Q: With `C#C[C@]1(O)CC[C@H]2[C@@H]3CCC4=CC(=O)CC[C@@H]4[C@H]3CC[C@@]21CC` as the compound, how does the Potency read?
A: inconclusive [inhibitor, partial curve]

Q: Which Potency does the source give for `COc1ccc(-c2cc(=O)oc3cc(OC(C)C(=O)NCc4ccccn4)ccc23)cc1` (stereo unspecified) here?
A: inconclusive [inhibitor, full curve]

Q: For `CN1CC(c2ccccc2)C(c2ccc(Cl)cc2)=N1` (stereo unspecified), which Potency is on record?
A: inconclusive [inhibitor, full curve]

Q: For `CC(C)CCNC(=O)NC(=O)COC(=O)c1cc(S(=O)(=O)N2CCOCC2)ccc1N1CCCCC1`, which “activity change, negative = inhibition” value is on record?
A: inactive: -2.32%

Q: How did the Potency turn out when `Cc1ccc(NC(=O)c2ccc3c(c2)C(=O)N(Cc2cccnc2)C3=O)c(C)c1` was run?
A: inconclusive [inhibitor, full curve, poor fit]

Q: Which Potency does the source give for `CCOC(=O)NC(CC(=O)O)c1ccc(OC)cc1` (stereo unspecified) here?
A: inconclusive [inhibitor, full curve, poor fit]

Q: `O=C(CCCN1C(=O)CCC1=O)Nc1ccc2c(c1)OCO2` was tested. Which Potency did it give?
A: inconclusive [inhibitor, full curve, poor fit]

Q: For `CCOC(=O)c1c(S(=O)(=O)NCCc2ccc(OC)c(OC)c2)c(C)n(C)c1C`, which Potency is on record?
A: inconclusive [inhibitor, full curve]

Q: With `Cc1ccc(NC(=O)CSc2nc3ccccc3c3nc4ccccc4n23)cc1` as the compound, how does the Potency read?
A: inconclusive [inhibitor, single point]

Q: `CCN(C(=O)COC(=O)c1cc(=O)c2ccccc2o1)c1c(N)n(Cc2ccccc2)c(=O)[nH]c1=O` was tested. Which Potency did it give?
A: inconclusive [inhibitor, full curve, poor fit]

Q: `COc1ccc(Nc2ccccc2)c(C)c1` was tested. Which Potency did it give?
A: inconclusive [inhibitor, full curve, poor fit]

Q: With `CCn1c(SCCOc2ccc(Cl)cc2)nnc1-c1cccs1` as the compound, how does the Potency read?
A: inconclusive [inhibitor, full curve, poor fit]

Q: How did the Potency turn out when `CCN(CC(=O)Nc1ccc(OC)cc1)C(=O)c1ccc(N2CCCC2=O)cc1` was run?
A: inconclusive [inhibitor, full curve, poor fit]

Q: For `COc1ccc(C(CNC(=O)c2cccc(NS(=O)(=O)c3ccccc3)c2)N(C)C)cc1` (stereo unspecified), which “activity change, negative = inhibition” value is on record?
A: inactive: 3.98%

Q: Which “activity change, negative = inhibition” value does the source give for `O=C(CSc1n[nH]c(=O)[nH]c1=O)c1ccccc1[N+](=O)[O-]` here?
A: inactive: 1.88%

Q: For `Cc1cc(C)c2[nH]c(=O)c(CN(CC3CCCO3)C(=O)c3cnccn3)cc2c1` (stereo unspecified), which Potency is on record?
A: inconclusive [inhibitor, full curve, poor fit]

Q: Which Potency does the source give for `CCSc1nsc(NC(=O)Nc2cccc(F)c2)n1` here?
A: inconclusive [inhibitor, full curve, poor fit]

Q: `COc1cccc(NC(=O)Nc2nnc(Cc3ccccc3)s2)c1` was tested. Which “activity change, negative = inhibition” value did it give?
A: inactive: -11.2%

Q: With `O=C(CC1(O)C(=O)N(CCc2ccccc2)c2ccc(Br)cc21)c1ccc(F)cc1` (stereo unspecified) as the compound, how does the Potency read?
A: inconclusive [inhibitor, partial curve]

Q: `CC1Cc2nc(SCC(=O)Nc3ccc4c(c3)OCO4)n(CCc3ccccc3)c(=O)c2S1` (stereo unspecified) was tested. Which Potency did it give?
A: inconclusive [inhibitor, single point]

Q: Which “activity change, negative = inhibition” value does the source give for `CSc1nc(=O)c2c(n1C)NC(=O)CC2c1ccccc1OC(C)C` (stereo unspecified) here?
A: inactive: 5.75%

Q: With `Cc1cc(C)c(C)c(S(=O)(=O)N2CCN(c3ccccn3)CC2)c1C` as the compound, how does the Potency read?
A: inconclusive [inhibitor, full curve, poor fit]

Q: `Cc1ccc(NC(=S)N2CCC(NC(=O)c3ccccc3)CC2)cc1` was tested. Which Potency did it give?
A: inconclusive [inhibitor, full curve, poor fit]
